Measured values: the supplement of paper PMC6828730
Counter-ions that a name gives are not always drawn. Some of the results follow. Many values rest on one well or one pass, so single values are uncertain.

test system: hiPSC-derived cardiomyocytes; experiment: time to death of most cells in well after compound addition (days); higher = less cardiotoxic; conditions: screen: 1; 10 µM

Row | SMILES | time to death of most cells in well
1 | Cc1ncc(-c2ccnc(Nc3ccc(S(C)(=O)=O)cc3)n2)n1C(C)C | 6.5
2 | N=C(N)NC(=N)NCCc1ccccc1 [Phenformin HCl] | 6.5
3 | Cc1cnc(Nc2ccc(OCCN3CCCC3)cc2)nc1Nc1cccc(S(=O)(=O)NC(C)(C)C)c1 | 2.5
4 | CO[C@H]1CC[C@H](N2C(=O)CNc3ncc(-c4ccc(C(C)(C)O)nc4)nc32)CC1 | 2
5 | CCN(CC)CCCC(C)Nc1nc(C)cc(Nc2ccc3nc(C)cc(N)c3c2)n1 (stereo unspecified) | > 7
6 | O=C1NCCc2[nH]c(-c3ccncc3)cc21 | 5
7 | COc1cc2ncnc(Nc3ccc(F)c(Cl)c3)c2cc1OCCCN1CCOCC1 [Gefitinib (ZD1839)] | 4
8 | Cc1ccccc1-n1c(Cn2nc(-c3cccc(O)c3)c3c(N)ncnc32)nc2cccc(C)c2c1=O | > 7
9 | CCOC(=O)c1cnc2ccc(-c3cncc(NS(=O)(=O)c4ccccc4)c3)cn12 | 0
10 | COc1ccc(S(=O)(=O)N(C(C)=O)c2ccccc2/C=C/c2cc[n+]([O-])cc2)cc1 | > 7
11 | O=C1Nc2ccc(I)cc2C1=Cc1cc(Br)c(O)c(Br)c1 | > 7
12 | CN(C(Cc1ccc(OS(=O)(=O)c2cccc3cnccc23)cc1)C(=O)N1CCN(c2ccccc2)CC1)S(=O)(=O)c1cccc2cnccc12 (stereo unspecified) | > 7
13 | CN1CCCN(C(=O)c2cccc(-c3ccc(/C=C4/C(=O)Nc5ccc(Cl)cc54)o3)c2)CC1 | 0.5
14 | O=c1sn(-c2cccc3ccccc23)c(=O)n1Cc1ccccc1 [Tideglusib] | > 7
15 | CCNC(=O)Nc1ccc(-c2nc3c(c(N4CCOC[C@@H]4C)n2)CCN(C2COC2)C3)cc1 | 3
16 | COc1cc2c(c(OC)c1OC)-c1c(cc3c(c1OC)OCO3)CC(C)C(C)C2 (stereo unspecified) [Schisandrin B (Sch B)] | > 7
17 | CN1CCN(c2ccc(C(=O)Nc3n[nH]c4ccc(Cc5cc(F)cc(F)c5)cc34)c(NC3CCOCC3)c2)CC1 [Entrectinib (RXDX-101)] | 1
18 | Cc1[nH]c2ccccc2c1C1=C(NCCc2ccc(F)cc2)C(=O)N(C)C1=O | 6.5
19 | COc1nccc(-c2c(-c3ccc(F)cc3)ncn2C2CCC(O)CC2)n1 (stereo unspecified) | > 7

Row | SMILES | time to death of most cells in well
20 | Cc1cc(NC(=O)c2cccc(NC(=O)/C=C/CN(C)C)c2)ccc1Nc1nccc(-c2cccnc2)n1 | 5.5
21 | CNC(=O)c1cc(Oc2ccc(NC(=O)Nc3ccc(Cl)c(C(F)(F)F)c3)cc2)ccn1 [Sorafenib] | 5.5
22 | CCCNC(=O)c1cn2ncnc(Nc3cc(C(=O)NC4CC4)ccc3C)c2c1C | > 7
23 | O=C(O)c1ccc(Nc2ncc3c(n2)-c2ccc(Cl)cc2C(c2c(F)cccc2F)=NC3)cc1 | > 7
24 | Cc1cc(O)c2c(c1)C(=O)c1cccc(O)c1C2=O [Chrysophanic Acid] | 5.5
25 | O=C(NC(NC(=S)Nc1ccc(F)c([N+](=O)[O-])c1)C(Cl)(Cl)Cl)C(c1ccccc1)c1ccccc1 (stereo unspecified) | 1
26 | O=c1cc(-c2ccccc2)oc2c(O)c(O)ccc12 [7,8-Dihydroxyflavone] | > 7
27 | C[C@@H](Oc1cc(-c2cnn(C3CCNCC3)c2)cnc1N)c1c(Cl)ccc(F)c1Cl | > 7
28 | Cc1[nH]c(/C=C2\C(=O)Nc3ccc(S(=O)(=O)Cc4c(Cl)cccc4Cl)cc32)c(C)c1C(=O)N1CCC[C@@H]1CN1CCCC1 | 3
29 | Cc1nc(NC(=O)N2CCC[C@H]2C(N)=O)sc1-c1csc(C(C)(C)C)n1 | > 7
30 | CNCc1ccc(-c2cc(-c3nc(-c4ccc(S(=O)(=O)C(C)C)cc4)cnc3N)on2)cc1 | 3
31 | CN(C)S(=O)(=O)c1ccc2c(c1)/C(=C/c1cc3c([nH]1)CCCC3)C(=O)N2 | > 7
32 | O=C(c1cccc(Cl)c1F)N1CCN(Cc2cccc(Nc3nccs3)n2)CC1 | 5.5
33 | COc1cc2ncnc(Nc3ccc(Cl)cc3F)c2cc1OC | > 7
34 | COc1ccc(COc2cc3oc(=O)c4cc(C(C)O)ccc4c3cc2OC)cc1 (stereo unspecified) [Palomid 529 (P529)] | 3.5
35 | O=c1cc(-c2cccc3c2Sc2ccccc2S3)oc(N2CCOCC2)c1 | > 7
36 | O=S(=O)(NCCNCC=Cc1ccc(Br)cc1)c1cccc2cnccc12 | 6.5
37 | COc1cc(OC)c(/C=C/S(=O)(=O)Cc2ccc(OC)c(NCC(=O)O)c2)c(OC)c1 | 3
38 | CNC(=O)c1ccccc1Sc1ccc2c(/C=C/c3ccccn3)n[nH]c2c1 [Axitinib] | > 7

test system: hiPSC-derived cardiomyocytes; experiment: time to death of most cells in well after compound addition (days); higher = less cardiotoxic; extreme values may be limits of the assay; conditions: screen: 2; 10 µM

Row | SMILES | time to death of most cells in well
39 | Cc1ncc(-c2ccnc(Nc3ccc(S(C)(=O)=O)cc3)n2)n1C(C)C | 3.5
40 | N=C(N)NC(=N)NCCc1ccccc1 [Phenformin HCl] | 6.5
41 | Cc1cnc(Nc2ccc(OCCN3CCCC3)cc2)nc1Nc1cccc(S(=O)(=O)NC(C)(C)C)c1 | 2.5
42 | CO[C@H]1CC[C@H](N2C(=O)CNc3ncc(-c4ccc(C(C)(C)O)nc4)nc32)CC1 | 2
43 | CCN(CC)CCCC(C)Nc1nc(C)cc(Nc2ccc3nc(C)cc(N)c3c2)n1 (stereo unspecified) | > 7
44 | O=C1NCCc2[nH]c(-c3ccncc3)cc21 | 3
45 | COc1cc2ncnc(Nc3ccc(F)c(Cl)c3)c2cc1OCCCN1CCOCC1 [Gefitinib (ZD1839)] | > 7
46 | Cc1ccccc1-n1c(Cn2nc(-c3cccc(O)c3)c3c(N)ncnc32)nc2cccc(C)c2c1=O | > 7
47 | CCOC(=O)c1cnc2ccc(-c3cncc(NS(=O)(=O)c4ccccc4)c3)cn12 | 5
48 | COc1ccc(S(=O)(=O)N(C(C)=O)c2ccccc2/C=C/c2cc[n+]([O-])cc2)cc1 | > 7
49 | O=C1Nc2ccc(I)cc2C1=Cc1cc(Br)c(O)c(Br)c1 | > 7
50 | CN(C(Cc1ccc(OS(=O)(=O)c2cccc3cnccc23)cc1)C(=O)N1CCN(c2ccccc2)CC1)S(=O)(=O)c1cccc2cnccc12 (stereo unspecified) | > 7
51 | CN1CCCN(C(=O)c2cccc(-c3ccc(/C=C4/C(=O)Nc5ccc(Cl)cc54)o3)c2)CC1 | 0.5
52 | O=c1sn(-c2cccc3ccccc23)c(=O)n1Cc1ccccc1 [Tideglusib] | > 7
53 | CCNC(=O)Nc1ccc(-c2nc3c(c(N4CCOC[C@@H]4C)n2)CCN(C2COC2)C3)cc1 | 2.5
54 | COc1cc2c(c(OC)c1OC)-c1c(cc3c(c1OC)OCO3)CC(C)C(C)C2 (stereo unspecified) [Schisandrin B (Sch B)] | > 7
55 | CN1CCN(c2ccc(C(=O)Nc3n[nH]c4ccc(Cc5cc(F)cc(F)c5)cc34)c(NC3CCOCC3)c2)CC1 [Entrectinib (RXDX-101)] | 2.5
56 | Cc1[nH]c2ccccc2c1C1=C(NCCc2ccc(F)cc2)C(=O)N(C)C1=O | 2
57 | COc1nccc(-c2c(-c3ccc(F)cc3)ncn2C2CCC(O)CC2)n1 (stereo unspecified) | > 7

Row | SMILES | time to death of most cells in well
58 | Cc1cc(NC(=O)c2cccc(NC(=O)/C=C/CN(C)C)c2)ccc1Nc1nccc(-c2cccnc2)n1 | 5.5
59 | CNC(=O)c1cc(Oc2ccc(NC(=O)Nc3ccc(Cl)c(C(F)(F)F)c3)cc2)ccn1 [Sorafenib] | 3
60 | CCCNC(=O)c1cn2ncnc(Nc3cc(C(=O)NC4CC4)ccc3C)c2c1C | > 7
61 | O=C(O)c1ccc(Nc2ncc3c(n2)-c2ccc(Cl)cc2C(c2c(F)cccc2F)=NC3)cc1 | > 7
62 | Cc1cc(O)c2c(c1)C(=O)c1cccc(O)c1C2=O [Chrysophanic Acid] | 4
63 | O=C(NC(NC(=S)Nc1ccc(F)c([N+](=O)[O-])c1)C(Cl)(Cl)Cl)C(c1ccccc1)c1ccccc1 (stereo unspecified) | 1.5
64 | O=c1cc(-c2ccccc2)oc2c(O)c(O)ccc12 [7,8-Dihydroxyflavone] | > 7
65 | C[C@@H](Oc1cc(-c2cnn(C3CCNCC3)c2)cnc1N)c1c(Cl)ccc(F)c1Cl | 3
66 | Cc1[nH]c(/C=C2\C(=O)Nc3ccc(S(=O)(=O)Cc4c(Cl)cccc4Cl)cc32)c(C)c1C(=O)N1CCC[C@@H]1CN1CCCC1 | 2
67 | Cc1nc(NC(=O)N2CCC[C@H]2C(N)=O)sc1-c1csc(C(C)(C)C)n1 | > 7
68 | CNCc1ccc(-c2cc(-c3nc(-c4ccc(S(=O)(=O)C(C)C)cc4)cnc3N)on2)cc1 | 2.5
69 | CN(C)S(=O)(=O)c1ccc2c(c1)/C(=C/c1cc3c([nH]1)CCCC3)C(=O)N2 | > 7
70 | O=C(c1cccc(Cl)c1F)N1CCN(Cc2cccc(Nc3nccs3)n2)CC1 | 5
71 | COc1cc2ncnc(Nc3ccc(Cl)cc3F)c2cc1OC | > 7
72 | COc1ccc(COc2cc3oc(=O)c4cc(C(C)O)ccc4c3cc2OC)cc1 (stereo unspecified) [Palomid 529 (P529)] | > 7
73 | O=c1cc(-c2cccc3c2Sc2ccccc2S3)oc(N2CCOCC2)c1 | 1.5
74 | O=S(=O)(NCCNCC=Cc1ccc(Br)cc1)c1cccc2cnccc12 | 5
75 | COc1cc(OC)c(/C=C/S(=O)(=O)Cc2ccc(OC)c(NCC(=O)O)c2)c(OC)c1 | 3
76 | CNC(=O)c1ccccc1Sc1ccc2c(/C=C/c3ccccn3)n[nH]c2c1 [Axitinib] | > 7
